{
  "source": "PubChem BioAssay AID1346428",
  "about": "(National Center for Advancing Translational Sciences (NCATS), 2018)",
  "note": "“And” between values parts separate entries of the source, which are not always exact repeats. Equal entries are not always repeated. Among all 48,000 compounds or so, about 1,200 (2.5%) were called active. Roughly 2% stayed inconclusive and do not appear here.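 How the source made its calls: active means activation of at least 60% and not above a set upper limit (about 1 call in 100 departs from these limits); inconclusive means activation of 40% to 60%, or above that upper limit; inactive means activation under 40%.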 The list shows a part of the results.",
  "data": [
    {"biological_target": "Probable G-protein coupled receptor 32 (Homo sapiens) (UniProt O75388)", "sequence (O75388 whole entry, looked up)": "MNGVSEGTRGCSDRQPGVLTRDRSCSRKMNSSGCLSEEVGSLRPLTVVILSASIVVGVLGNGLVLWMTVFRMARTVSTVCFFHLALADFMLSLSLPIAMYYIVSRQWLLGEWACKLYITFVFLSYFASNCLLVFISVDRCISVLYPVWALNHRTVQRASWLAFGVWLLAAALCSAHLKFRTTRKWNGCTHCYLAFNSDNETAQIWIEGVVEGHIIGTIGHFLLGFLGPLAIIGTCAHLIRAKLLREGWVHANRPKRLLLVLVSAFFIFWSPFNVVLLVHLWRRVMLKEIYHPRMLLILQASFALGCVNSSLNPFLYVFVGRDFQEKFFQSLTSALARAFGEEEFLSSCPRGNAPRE", "assay": "qHTS for Agonists of Human Resolvin D1 Receptor DRV1; further: 0% is about no effect", "conditions": "CHO-K1 GPR32 beta-arrestin PathHunter luminescence, 90 min; at 76.9 µM; stronger effect = higher value; zero percent set by DMSO-only wells", "procedure,_shortened": "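Luminescent readout of beta-Gal complementation quantifies ligand-induced beta-arrestin association with GPR32 in CHO-K1 cells; 90 min compound incubation at 37 °C, detection 1 h at room temperature.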", "values": [
      {"compound": "COc1ccc(-c2nc3ccccc3o2)cc1NC(=O)c1ccc(-c2cccc(Cl)c2C)o1", "activation": "inactive: 23.4%"},
      {"compound": "Cc1ccc2ccc(Cl)cc2n1", "activation": "inactive: 0.0415%"},
      {"compound": "O=c1cc(O)c(Cl)c[nH]1", "activation": "inactive: -4.47%"},
      {"compound": "Cc1ccc(CNC(=O)C2CCCN(Cc3nc(-c4cccc(C)c4)oc3C)C2)cc1", "note": "(stereo not given)", "activation": "inactive: -6.44%"},
      {"compound": "c1ccc(OCc2ccc(CCCN3CCOCC3)cc2)cc1", "activation": "inactive: 39.7%"},
      {"compound": "COc1cccc(NC(=O)C2CCN(c3nnc(-n4c(C)ccc4C)s3)CC2)c1", "activation": "inactive: -18.2%"},
      {"compound": "CC1=C(C(=O)Nc2cccc(C(F)(F)F)c2)C2(CCN(C(C)C)CC2)OC1=O", "activation": "inactive: 0%"},
      {"compound": "CCN(CC)CCNC(=O)c1ccc2c(=O)n3nc(Nc4ccccc4)sc3nc2c1", "activation": "inactive: -2.91%"},
      {"compound": "O=C(CCCn1c(=O)c2ccccc2n(Cc2cccc(F)c2)c1=O)NCc1ccccc1Cl", "activation": "inactive: -5.14%"},
      {"compound": "O=C(Nc1ccc(S(=O)(=O)N(Cc2ccccc2)c2ccccc2)cc1)c1ccc(F)cc1", "activation": "inactive: -5.35%"},
      {"compound": "CCCCNC(=O)c1sc2ncccc2c1-n1cccc1", "activation": "inactive: -19%"},
      {"compound": "O=C(CCc1ccccc1)N1CCc2c([nH]c3ccccc23)C1c1ccc(F)cc1", "note": "(stereo not given)", "activation": "inactive: -39.3%"},
      {"compound": "O=C(NCCCc1nc2ccccc2n1Cc1ccccc1F)c1ccco1", "activation": "inactive: -1.18%"},
      {"compound": "CCOC(=O)Cn1c(=O)n(-c2ccc(Cl)cc2)c2nc(-c3ccc(Cl)cc3)nc(C(N)=O)c21", "activation": "inactive: -8.32%"},
      {"compound": "Cc1cc2oc(C(=O)Nc3c(C)n(C)n(-c4ccccc4)c3=O)cc(=O)c2cc1C", "activation": "inactive: -5.92%"},
      {"compound": "COc1ccc(-c2cc(C(=O)Nc3c(C)n(C)n(-c4ccccc4)c3=O)no2)cc1", "activation": "inactive: 9.79%"},
      {"compound": "COC(=O)C(CCSC)NC(=O)c1cc2c(n(-c3ccccc3)c1=O)CC(C)(C)CC2=O", "note": "(stereo not given)", "activation": "inactive: 14%"},
      {"compound": "CN1C(=O)c2ccccc2Sc2ccc(NC(=O)c3ccc(C#N)cc3)cc21", "activation": "inactive: 26.7%"},
      {"compound": "Cc1cccc(NS(=O)(=O)c2ccc3c(c2)CCCN3C(=O)C2CCC2)c1C", "activation": "inactive: 6.13%"},
      {"compound": "Cc1nn(C(C)(C)C)c(OC(=O)c2c(F)cccc2F)c1Sc1ccccc1", "activation": "inactive: -2.3%"},
      {"compound": "COc1ccc(NC(=O)CN(c2ccc(C)cc2)S(=O)(=O)c2cccs2)cc1", "activation": "inactive: 8.7%"},
      {"compound": "COc1cc(CNc2ccc3[nH]c(=O)[nH]c3c2)cc(Cl)c1OCc1ccc(F)cc1", "activation": "inactive: -1.6%"},
      {"compound": "Cc1ccc2c(=O)cc(C(=O)Nc3nc4ccc(Cl)cc4s3)oc2c1", "activation": "inactive: -8.28%"},
      {"compound": "Cc1cccc(C(=O)Nc2ccccc2OCc2cc(=O)n3c(C)csc3n2)c1", "activation": "inactive: 11%"},
      {"compound": "O=C(Nc1ccc(C(=O)OCc2cc(=O)n3c4c(sc3n2)CCCC4)cc1)c1cccc(F)c1", "activation": "inactive: -16.1%"},
      {"compound": "Cc1csc2nc(-c3cccc(NC(=O)c4c(F)cccc4F)c3)cn12", "activation": "inactive: -2.85%"},
      {"compound": "O=C(Cn1cc(S(=O)(=O)Cc2ccccc2F)c2ccccc21)NCc1ccccc1", "activation": "inactive: 0.932%"},
      {"compound": "COc1ccc(CCNc2nc3c(c(=O)n(C)c(=O)n3C)n2Cc2ccccc2Cl)cc1OC", "activation": "inactive: -7.5%"},
      {"compound": "O=C(NCCc1ccccc1)c1cc(-c2ccc(Cl)c(Cl)c2)on1", "activation": "inactive: -20.2%"},
      {"compound": "CCOc1ccc(Nc2c3c(nc4nncn24)CCC3)cc1", "activation": "inactive: -14.5%"},
      {"compound": "COc1ccc(C(=O)OCc2cc(=O)n3nc(C4CC4)sc3n2)cc1OC", "activation": "inactive: -9.04%"},
      {"compound": "COc1cc(OC)cc(N2C(=O)CSC23C(=O)Nc2ccccc23)c1", "note": "(stereo not given)", "activation": "inactive: -14.4%"},
      {"compound": "Cc1c(CC(=O)NCc2ccccc2Cl)c(=O)oc2cc(O)ccc12", "activation": "inactive: 37.3%"},
      {"compound": "Cc1ccc2nc(-c3c[nH]c4ccccc34)c(Nc3ccc(F)cc3)n2c1", "activation": "inactive: 3.62%"},
      {"compound": "Cc1ccc(CNC(=O)C(C)n2c(=O)cc(-c3ccccc3)c3c(C)nn(C)c32)cc1", "note": "(stereo not given)", "activation": "inactive: -24.3%"},
      {"compound": "Cc1ccc(-c2nnn3c2nc(NCc2ccc4c(c2)OCO4)c2ccccc23)cc1", "activation": "inactive: 35.5%"},
      {"compound": "COc1ccccc1N1CCN(C(=O)c2ccc3c(c2)CCN3S(=O)(=O)c2ccccc2)CC1", "activation": "inactive: -14.7%"},
      {"compound": "Cc1oc(-c2ccccc2Cl)nc1CSc1nncn2c1cc1occc12", "activation": "inactive: -21%"},
      {"compound": "COc1ccc(Br)cc1CNC(=O)Cn1ncn2nc(-c3cccs3)cc2c1=O", "activation": "inactive: 0.201%"},
      {"compound": "O=C(CCS(=O)(=O)c1cccc2nonc12)Nc1ccc(F)cc1F", "activation": "inactive: -8.05%"},
      {"compound": "COc1ccc2c(Sc3ccccc3)c(C(=O)NCc3cc(Br)ccc3OC)[nH]c2c1", "activation": "inactive: -17.6%"},
      {"compound": "COc1ccccc1CNC(=O)c1ccc(CSc2nc3ccncc3n2Cc2cccc(F)c2)cc1", "activation": "inactive: -9.91%"},
      {"compound": "Cc1ccc(OCC(=O)Nc2nc(-c3ccc(Br)cc3)ns2)cc1", "activation": "inactive: 16.1%"},
      {"compound": "O=C(NCCc1ccc(F)cc1)C(=O)NCC(c1cccs1)S(=O)(=O)c1ccccc1", "note": "(stereo not given)", "activation": "inactive: -1.34%"},
      {"compound": "CCCn1ccc2c(OCC(=O)Nc3ccc(OC)c(OC)c3)cccc2c1=O", "activation": "active: 85.6%"},
      {"compound": "O=C(CC(c1cccs1)N1Cc2ccccc2C1=O)Nc1cccc(F)c1", "note": "(stereo not given)", "activation": "active: 61.1%"},
      {"compound": "CCOc1ccccc1CNc1nc2nc(C)c(CC(=O)OC)c(=O)n2[nH]1", "activation": "inactive: 12.6%"},
      {"compound": "Cc1cccc(-c2nc(C)c(CCNC(=O)C(=O)Nc3ccc(C)c(C)c3)s2)c1", "activation": "inactive: 8.26%"},
      {"compound": "Cc1cc(C)c(/C=C2\\C(=O)Nc3ccccc32)[nH]1", "activation": "inactive: -11.5% and inactive: -26.2%"},
      {"compound": "CN/C(=C\\[N+](=O)[O-])NCCSCc1csc(CN(C)C)n1", "activation": "inactive: 10.7%"},
      {"compound": "O=C(CSc1nc(=O)[nH]c2c1CCC2)NCc1ccc(F)cc1", "activation": "inactive: -6.93%"},
      {"compound": "COc1ccc(Cl)cc1S(=O)(=O)N1CCN(C(=O)c2cc(-c3ccc(Br)cc3)n[nH]2)CC1", "activation": "inactive: 1.12%"},
      {"compound": "Cc1ccc(-n2ncc3c(N4CCN(Cc5ccccc5)CC4)ncnc32)cc1", "activation": "inactive: 10.3%"},
      {"compound": "Cc1cccc(C(=O)Nc2ccc(S(=O)(=O)N3CCCCC3c3cccnc3)cc2)c1", "note": "(stereo not given)", "activation": "inactive: -8.45%"},
      {"compound": "COc1ccc(CNC(=O)CS(=O)(=O)c2cccc3nsnc23)cc1", "activation": "inactive: -0.398%"},
      {"compound": "Cc1cc2c(cc1Cl)N(C(=O)Nc1ccnc3ccccc13)CC2", "activation": "inactive: -9.57%"},
      {"compound": "CCOc1cc(C2C(C(=O)OC)=C(C)NC3=C2C(=O)c2ccccc23)cc(Br)c1OCC", "note": "(stereo not given)", "activation": "inactive: -16.3%"},
      {"compound": "Cc1cc(C)c(NC(=O)Cc2ccc(-n3c(C)nc4cccnc43)cc2)c(C)c1", "activation": "inactive: -6.48%"},
      {"compound": "C=CC[N+]1([C@H]2C[C@H]3[C@@H]4CC[C@H]5C[C@H](OC(C)=O)[C@@H](N6CCCCC6)C[C@]5(C)[C@H]4CC[C@]3(C)[C@H]2OC(=O)CC)CCCCC1", "activation": "inactive: -36%"},
      {"compound": "O=C(c1ccc([N+](=O)[O-])cc1)N1c2ncnn2C2(CCCCC2)[C@@H]2CCCC[C@@H]21", "activation": "inactive: 8.19%"},
      {"compound": "COc1ccc(Cl)cc1C(=O)NCc1nc(-c2cccc(C)c2)no1", "activation": "inactive: -9.68%"},
      {"compound": "CC1=C(C(=O)OC2CCCCCC2)C(c2ccc(Cl)cc2)CC(=O)N1", "note": "(stereo not given)", "activation": "inactive: -11.5%"},
      {"compound": "Cc1ccc(OC(=O)CSc2nnc(-c3cccs3)o2)c(C)c1", "activation": "inactive: -12.6%"},
      {"compound": "CC(=O)Nc1ccc(NC(=O)C2Cc3ccccc3N2C(=O)c2ccccc2)cc1", "note": "(stereo not given)", "activation": "active: 100%"},
      {"compound": "COc1ccc(Cn2c(CCC(=O)Nc3ccccc3OC)nc3cccnc32)cc1", "activation": "inactive: -5.53%"},
      {"compound": "Cc1ccc2nc(-c3ccco3)c(Nc3ccc4c(c3)OCCO4)n2c1", "activation": "inactive: -3.83%"},
      {"compound": "COc1ccc(CNC(=O)c2ccc(-c3nc(CS(=O)c4ccc(C)cc4)c(C)o3)cc2)cc1", "note": "(stereo not given)", "activation": "active: 69.7%"},
      {"compound": "COc1cccc2[nH]c(C(=O)NCc3ccc4c(c3)CCN4C(=O)c3ccc(F)cc3)cc12", "activation": "inactive: -44.2%"},
      {"compound": "CCc1c(C)nc2nc(-c3ccccc3)nn2c1NCc1ccc(C)cc1", "activation": "active: 72.2%"},
      {"compound": "O=C(CSc1cn(CCNC(=O)c2c(F)cccc2F)c2ccccc12)Nc1ccccc1F", "activation": "active: 65.5%"},
      {"compound": "O=C1CC2(CCCC2)CC(=O)N1CCCCN1CCN(c2ncccn2)CC1", "activation": "inactive: -2.55% and inactive: 12.8%"},
      {"compound": "CCCC(=O)NCCc1c2n(c3ccc(OC)cc13)CCCc1ccccc1-2", "activation": "inactive: -19.9%"},
      {"compound": "Cc1oc2ccc(O)c(CN3CCCC(C)C3)c2c1C(=O)Nc1ccccc1", "note": "(stereo not given)", "activation": "inactive: 2.32%"},
      {"compound": "CC(C)OCCCn1c(=O)c2ccccc2n2c(-c3ccccc3F)nnc12", "activation": "inactive: 0.202%"},
      {"compound": "COc1ccc2c(c1)c(=O)c(C(=O)c1ccc(Cl)cc1)cn2CC(=O)Nc1ccc2c(c1)OCCO2", "activation": "inactive: -6.91%"},
      {"compound": "CC(C)CCn1c(=O)c2sccc2n2c(CCCC(=O)NCc3ccc(F)cc3)nnc12", "activation": "inactive: -12%"},
      {"compound": "CCc1ccccc1NC(=O)c1cc(S(=O)(=O)N2CCCc3ccccc32)ccc1F", "activation": "inactive: -9.03%"},
      {"compound": "Cc1c(C(=O)Nc2ccc(F)cc2)sc2nc[nH]c(=O)c12", "activation": "inactive: -1.07%"},
      {"compound": "CCOc1ccc(N(C)C(CNS(=O)(=O)c2ccccc2)c2ccccc2)cc1", "note": "(stereo not given)", "activation": "inactive: -3.44%"},
      {"compound": "O=C(COc1ccccc1)Nc1cccc(-c2cn3cccnc3n2)c1", "activation": "inactive: 16.9%"},
      {"compound": "Cc1cccc(N2CCN(C(=O)CCn3c(=O)c4cccn4c4cccnc43)CC2)c1C", "activation": "inactive: -7.39%"},
      {"compound": "O=C(Cn1c(=O)c2cccn2c2ccc(F)cc21)N1CCN(c2ccc(F)cc2)CC1", "activation": "inactive: -15.7%"},
      {"compound": "Fc1cccc(-n2ncc3c2ncn2nc(-c4ccccc4Cl)nc32)c1", "activation": "inactive: -8.66%"},
      {"compound": "CCOc1ccccc1CNC(=O)c1cccn1-c1nnc(N2CCCCC2)s1", "activation": "inactive: 5.39%"},
      {"compound": "Cc1ccn2c(=O)c(C(=O)NC(C)c3ccccc3)c(O)nc2c1", "note": "(stereo not given)", "activation": "inactive: -10.5%"}
    ]}
  ]
}
